# Measurements as given in patent EP4130029A1 (ImmunOs Therapeutics AG, dated 2023).
# What was measured:
# [1] = target: T1, LILRB2 (c-terminally biotinylated, BPS Bioscience #100335) (UniProt Q8N423 22-460, limits assumed, C-terminal biotin); experiment: ELISA; biotinylated LILRB2 on streptavidin plate, fusion protein titrated, APC anti-human IgG detection
# T1 construct: It was immobilised on streptavidin plates for ELISA and on streptavidin biosensors for BLI; also called biotinylated LILRB2; innate immune receptor LILRB2
# [2] = target: T1, LILRB2 (c-terminally biotinylated, BPS …); experiment: BLI (Octet Red 96e); biotinylated LILRB2 on streptavidin biosensors, fusion protein as analyte, bivalent analyte (2:1) model
# T1 sequence (Q8N423 22-460 limits assumed): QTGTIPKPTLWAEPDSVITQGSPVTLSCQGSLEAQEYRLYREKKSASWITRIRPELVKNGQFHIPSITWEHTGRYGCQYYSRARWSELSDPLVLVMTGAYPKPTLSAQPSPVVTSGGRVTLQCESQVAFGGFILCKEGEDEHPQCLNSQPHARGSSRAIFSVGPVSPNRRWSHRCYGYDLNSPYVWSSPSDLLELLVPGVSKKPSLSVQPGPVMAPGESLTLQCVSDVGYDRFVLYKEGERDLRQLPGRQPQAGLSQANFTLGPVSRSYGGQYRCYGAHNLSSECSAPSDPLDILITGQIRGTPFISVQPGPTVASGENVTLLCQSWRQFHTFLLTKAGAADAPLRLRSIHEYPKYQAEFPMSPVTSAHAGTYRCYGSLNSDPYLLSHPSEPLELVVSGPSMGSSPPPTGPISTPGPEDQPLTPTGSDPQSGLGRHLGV
Binder,EC50 [1] [µM],Kd [2] [µM]
"HLA-B57.OC (open conformer fusion protein of the natural HLA-B57:01:01 heavy chain extracellular domain and IgG4 Fc, lacking β2m) (Fc fusion, also called HLA-B57-Fc; natural HLA-B57-derived fusion protein control) MHC heavy: GSHSMRYFYTAMSRPGRGEPRFIAVGYVDDTQFVRFDSDAASPRMAPRAPWIEQEGPEYWDGETRNMKASAQTYRENLRIALRYYNQSEAGSHIIQVMYGCDVGPDGRLLRGHDQSAYDGKDYIALNEDLSSWTAADTAAQITQRKWEAARVAEQLRAYLEGLCVEWLRRYLENGKETLQRADPPKTHVTHHPISDHEATLRCWALGFYPAEITLTWQRDGEDQTQDTELVETRPAGDRTFQKWAAVVVPSGEEQRYTCHVQHEGLPKPLTLRWEPSSQSGGGGSGGGGS[here human IgG4 Fc with S228P (EU numbers) without letters]",0.021,–
"HLA-B57(A46E/V97R).OC (open conformer variant HLA-B57:01 extracellular domain A46E V97R IgG4 fusion protein, lacking β2m) (Fc fusion, β2m was removed under acidic conditions by size exclusion chromatography; also called HLA-B57^(A46E/V97R)-Fc) MHC heavy: GSHSMRYFYTAMSRPGRGEPRFIAVGYVDDTQFVRFDSDAASPRMEPRAPWIEQEGPEYWDGETRNMKASAQTYRENLRIALRYYNQSEAGSHIIQRMYGCDVGPDGRLLRGHDQSAYDGKDYIALNEDLSSWTAADTAAQITQRKWEAARVAEQLRAYLEGLCVEWLRRYLENGKETLQRADPPKTHVTHHPISDHEATLRCWALGFYPAEITLTWQRDGEDQTQDTELVETRPAGDRTFQKWAAVVVPSGEEQRYTCHVQHEGLPKPLTLRWEPSSQSGGGGSGGGGS[here human IgG4 Fc with S228P (EU numbers) without letters]",0.0083,0.0203
